From paper PMC4336329 (PLoS ONE, 2015)
In all, about 310,000 compounds went through this assay and about 2,200 (0.71%) showed an effect of 50% or more. Effects have a minus sign here. This is one part of the list.

The compounds below were run against human ether-à-go-go-related gene (hERG) potassium channel (human, UniProt Q12809) (assay: primary screen, population patch clamp on CHO cells stably expressing hERG).
human ether-à-go-go-related gene (hERG) potassium channel, sequence (Q12809 whole entry, looked up): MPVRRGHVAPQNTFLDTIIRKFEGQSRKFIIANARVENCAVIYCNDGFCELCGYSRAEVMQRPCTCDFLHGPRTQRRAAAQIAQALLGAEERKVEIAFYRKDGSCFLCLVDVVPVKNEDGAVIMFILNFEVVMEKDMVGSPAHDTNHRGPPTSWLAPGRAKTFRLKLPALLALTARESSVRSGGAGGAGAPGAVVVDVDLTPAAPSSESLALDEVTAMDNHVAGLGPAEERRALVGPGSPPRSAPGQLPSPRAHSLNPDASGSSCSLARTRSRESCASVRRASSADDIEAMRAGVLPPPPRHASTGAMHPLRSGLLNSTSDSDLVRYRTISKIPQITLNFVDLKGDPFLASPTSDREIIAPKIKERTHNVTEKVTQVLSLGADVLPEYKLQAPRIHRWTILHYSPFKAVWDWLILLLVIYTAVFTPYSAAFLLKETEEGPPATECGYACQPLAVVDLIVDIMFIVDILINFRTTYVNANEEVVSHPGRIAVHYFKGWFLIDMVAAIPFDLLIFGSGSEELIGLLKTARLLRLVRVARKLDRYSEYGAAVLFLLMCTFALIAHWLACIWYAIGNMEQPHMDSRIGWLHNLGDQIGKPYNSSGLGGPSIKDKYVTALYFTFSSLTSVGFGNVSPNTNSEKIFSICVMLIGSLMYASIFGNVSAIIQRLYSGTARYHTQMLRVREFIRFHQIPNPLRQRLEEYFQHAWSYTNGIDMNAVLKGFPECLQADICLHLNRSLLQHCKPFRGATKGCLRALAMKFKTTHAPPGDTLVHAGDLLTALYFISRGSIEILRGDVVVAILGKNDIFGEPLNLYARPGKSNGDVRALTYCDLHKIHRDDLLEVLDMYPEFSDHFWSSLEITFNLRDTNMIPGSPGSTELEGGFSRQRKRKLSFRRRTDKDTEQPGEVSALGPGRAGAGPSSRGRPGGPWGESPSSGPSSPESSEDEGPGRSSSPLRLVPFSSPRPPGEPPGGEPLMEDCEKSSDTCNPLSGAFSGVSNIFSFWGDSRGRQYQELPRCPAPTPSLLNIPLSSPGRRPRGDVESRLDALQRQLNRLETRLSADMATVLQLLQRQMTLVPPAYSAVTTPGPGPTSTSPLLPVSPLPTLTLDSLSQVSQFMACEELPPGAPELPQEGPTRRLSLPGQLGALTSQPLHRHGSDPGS

Compound | hERG current change (%, negative = inhibition) at 1uM
CCN(CC)CCCN1C=C2C(=O)C(C)(OC(=O)C3CCCC3)C(=O)C(c3ccccc3)=C2C=C1CCCC(=O)OC (stereo not drawn) | 14.1%
N#CCCN1CCN(C(=S)c2ccc(-c3ccc(Cl)cc3)o2)CC1 | -25.7%
C=CCNc1nc2c(c(=O)[nH]c(=O)n2C)n1CCCCC | -3.03%
S=C1NC2=C(CCCC2=C2SCCS2)C(c2ccccc2)N1 (stereo not drawn) | 11.8%
CCCCNc1ccc(C(=O)OCCOCCOCCOCCOCCOCCOCCOCCOCCOC)cc1 | 0.0554%
COc1ccc(-c2ccnc3[nH]n(-c4ccccc4)c(=O)c23)cc1 | 11.2%
CCOc1ccc(C(=O)NCC(C)CN(C)C)cc1OCC (stereo not drawn) | -8.57%
Cc1cccc(C)c1OCCOCCN1CCN(C)CC1 | -7.23%
Cc1oc(-c2ccccc2F)nc1CN1CCC(C(=O)NC2CCCc3ccccc32)CC1 (stereo not drawn) | -11.7%
COc1ccc(CN2CCN(CCCCOc3ccc(Cl)cc3)CC2)c(OC)c1OC.O=C(O)C(=O)O | -31.7%
O=C(COC(=O)c1cccs1)Nc1ccc(F)c(F)c1 | 10.7%
C=CCNC(=O)C(=O)N/N=C/c1ccco1 | 5.31%
Fc1ccccc1N1CCN(Cc2cnc(Cl)s2)CC1 | 9.64%
CC(=O)c1sc(NC(=O)c2ccc(C)c(C)c2)nc1C | 3.54%
Nn1c(SCC(=O)Nc2ccc(S(N)(=O)=O)cc2)nnc1-c1ccco1 | 1.56%
Cc1cc(=O)oc2cc(OCC(=O)OCC(=O)NC(=O)NC(C)C)ccc12 | 10.9%
CCCCN1C(=O)NC(=O)C2(Cc3c(nc4c(C)cccn4c3=O)N3CCc4ccccc4C32)C1=O (stereo not drawn) | -11.8%
COc1ccc(OCC(=O)N2CCCC(N3CCN(c4ccccc4C)CC3)C2)cc1 (stereo not drawn) | -42.6%
COc1nc2ccccc2c(=O)n1OCC(C)C | 7.22%
Clc1ccc(/C=C/c2ncc[nH]2)c(Cl)c1 | 5.13%
CCN(CC)CCN1C(=O)Cn2c(C)c(C)c3cccc1c32.O=C(O)C(O)C(O)C(=O)O | -56.1%
COc1cccc(CNC(=O)C2CCN(S(=O)(=O)c3ccc4c(c3)CC(C)N4C(=O)C3CC3)CC2)c1 (stereo not drawn) | 11.7%
Cc1ccc2c3c([nH]c2c1C)-c1nonc1CC3 | 15.6%

Compound | hERG current change (%, negative = inhibition) at 1uM
CCN(CCCNc1ncnc2nc[nH]c12)c1cccc(C)c1 | -1.95%
Cn1c(O)c(C(=O)c2ccccc2F)c(=O)n(C)c1=O | 9.92%
CCOc1cccc2sc(N(CCCN(C)C)C(=O)c3ccc(S(=O)(=O)N(C)Cc4ccccc4)cc3)nc12.Cl | -1.82%
CC(C)(C)OC(=O)N[C@@H](CCCCNC(=O)OCc1ccccc1)c1nnc([C@H](CCCCNC(=O)OCc2ccccc2)NC(=O)OC(C)(C)C)o1 | 5.62%
O=[N+]([O-])c1ccccc1CS(=O)(=O)c1ccccc1 | -1.73%
Cc1ccccc1C(=O)NC(C)c1ccc2c(c1)CCCC2 (stereo not drawn) | 8.7%
Nc1nccc(-c2nn(-c3ccc(Cl)cc3)ccc2=O)n1 | 18.5%
COc1ccc(OCCSc2nc3nc(C)cc(C)n3n2)cc1 | 5.9%
Nc1ncnc2c1ncn2CCN1CCCCC1 | -3.22%
Cc1ccc2c([N+](=O)[O-])c(C)ccc2n1 | 11.8%
C=CCNC(=O)CNS(=O)(=O)c1ccc(F)cc1 | 0.802%
CCOC(=O)C(C)NC(=O)C(NC(=O)C1CCC(CC)CC1)C(C)C (stereo not drawn) | 17.9%
O=C(c1cncc(Br)c1)N1CCN(c2ccc([N+](=O)[O-])cc2)CC1 | -62.2%
O=C(O)COc1ccc(=O)n(-c2ccccc2)n1 | 10.8%
Fc1ccc(Oc2nccc(-c3ccc(Cl)cc3)n2)cc1 | -3.21%
CCOC(=O)Cc1csc(NC(=O)c2cc(C)c(C)s2)n1 | 2.7%
COc1ccc(Cl)cc1NC1=NCC(C)S1 (stereo not drawn) | 0.429%
CS(=O)(=O)Oc1ccc2c(c1)O/C(=C\C=C\c1ccccc1)C2=O | -0.714%
COc1ccc(OC)c(-c2csc(NC(=O)Cn3[nH]c(=O)c4ccccc4c3=O)n2)c1 | 3.02%
O=C(c1cccnc1)N1c2ccccc2Sc2ccccc21 | 7.36%
O=C(CCCn1cc([N+](=O)[O-])cn1)NCc1ccccc1 | 3.22%
CC(=O)Nc1ccc(N(C(=O)c2cnccn2)C(C(=O)NC2CCCCC2)c2ccc(F)cc2)cc1 (stereo not drawn) | 12.5%
